The assay deals with T1, hCRTH2 (Homo sapiens, UniProt Q9Y5Y4).
T1 sequence (Q9Y5Y4 1-395): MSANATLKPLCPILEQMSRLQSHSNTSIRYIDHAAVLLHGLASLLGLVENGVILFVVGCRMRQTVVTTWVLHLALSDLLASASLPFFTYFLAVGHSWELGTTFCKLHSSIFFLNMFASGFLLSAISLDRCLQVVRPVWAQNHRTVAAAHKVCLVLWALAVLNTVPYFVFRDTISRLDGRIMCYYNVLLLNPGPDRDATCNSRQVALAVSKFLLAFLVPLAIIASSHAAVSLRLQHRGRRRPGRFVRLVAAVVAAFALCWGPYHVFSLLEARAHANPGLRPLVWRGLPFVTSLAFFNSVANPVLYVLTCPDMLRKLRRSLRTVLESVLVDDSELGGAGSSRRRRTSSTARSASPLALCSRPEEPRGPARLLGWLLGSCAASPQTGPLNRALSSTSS
The assay can be described thus: biochemical. Conditions: Ki (nM), Table A; Radioligand Binding Assay A, [3H]PGD2, HEK-hCRTH2 membranes.
Usually Ki stands for a dissociation constant, usually derived from enzyme kinetics or from competition with a known ligand. The low end stands for tighter binding, the high end for weaker binding. `O=C(O)CCC(=O)N(C1CC1)C1c2ccccc2N(C(=O)c2cccc(-c3ccnnc3)c2)C2CCCC21` (racemic) [18i, 4-[cyclopropyl[cis,cis-2,3,3a,4,9,9a-hexahydro-4-[3-(4-pyridazinyl)benzoyl]-1H-cyclopenta[b]quinolin-9-yl]amino]-4-oxobutanoic acid] displayed a Ki of 20.1 to 200 nM.

Compound `O=C(O)CCC(=O)N(C1CC1)C1c2ccccc2N(C(=O)c2ccc(-c3cncs3)cc2)C2CCCC21` (racemic) [18o, 4-[cyclopropyl[cis,cis-2,3,3a,4,9,9a-hexahydro-4-[4-(5-thiazolyl)benzoyl]-1H-cyclopenta[b]quinolin-9-yl]amino]-4-oxobutanoic acid] registered a Ki of 5.1 to 20 nM.

For the compound `O=C(O)CCC(=O)N(C1CC1)[C@H]1c2cc(F)ccc2N(C(=O)OC2CCc3ccccc3C2)[C@H]2CCC[C@H]21` (mixture of isomers) [22S, 4-(1,2,3,4-tetrahydro-2(RS)-naphthalenyl) (3aS,9R,9aR)-[(3-carboxy-1-oxopropyl)cyclopropylamino]-7-fluoro-1,2,3,3a,9,9a-hexahydro-4H-cyclopenta[b]quinoline-4-carboxylate], the Ki lay in the range of 5.1 to 20 nM.

On to `COc1cccc(NC(=O)N2c3ccccc3C(N(C(=O)CCC(=O)O)C3CC3)C3CCCC32)c1` (racemic) [23E, 4-[cyclopropyl[cis,cis-2,3,3a,4,9,9a-hexahydro-4-[[(3-methoxyphenyl)amino]carbonyl]-1H-cyclopenta[b]quinolin-9-yl]amino]-4-oxobutanoic acid], for which the Ki is 20.1 to 200 nM.

Regarding `COc1ccccc1NC(=O)N1c2ccccc2C(N(C(=O)CCC(=O)O)C2CC2)C2CCCC21` (racemic) [23F, 4-[cyclopropyl[cis,cis-2,3,3a,4,9,9a-hexahydro-4-[[(2-methoxyphenyl)amino]carbonyl]-1H-cyclopenta[b]quinolin-9-yl]amino]-4-oxobutanoic acid], the Ki fell in the range of 20.1 to 200 nM.

The compound `O=C(O)CCC(=O)N(C1CC1)C1c2ccccc2N(C(=O)Nc2ccccc2)C2CCCC21` (racemic) [23G, 4-[cyclopropyl[cis,cis-2,3,3a,4,9,9a-hexahydro-4-[(phenylamino)carbonyl]-1H-cyclopenta[b]quinolin-9-yl]amino]-4-oxobutanoic acid] gave a Ki of 20.1 to 200 nM.

Take `COc1ccc(NC(=O)N2c3ccccc3C(N(C(=O)CCC(=O)O)C3CC3)C3CCCC32)cc1` (racemic) [23H, 4-[cyclopropyl[cis,cis-2,3,3a,4,9,9a-hexahydro-4-[[(4-methoxyphenyl)amino]carbonyl]-1H-cyclopenta[b]quinolin-9-yl]amino]-4-oxobutanoic acid]: the Ki fell in the range of 20.1 to 200 nM.

For `O=C(O)CCC(=O)N(C1CC1)C1c2ccccc2N(C(=O)Nc2ccccc2OC(F)(F)F)C2CCCC21` (racemic) [23i, 4-[cyclopropyl[cis,cis-2,3,3a,4,9,9a-hexahydro-4-[[[2-(trifluoromethoxy)phenyl]amino]carbonyl]-1H-cyclopenta[b]quinolin-9-yl]amino]-4-oxobutanoic acid], the Ki was 201 to 7500 nM.

Consider `O=C(O)CCC(=O)N(C1CC1)C1c2ccccc2N(S(=O)(=O)c2ccc(Oc3ccccc3)cc2)C2CCCC12` (racemic) [24B, 4-[cyclopropyl[cis,cis-2,3,3a,4,9,9a-hexahydro-4-[(4-phenoxyphenyl)sulfonyl]-1H-cyclopenta[b]quinolin-9-yl]amino]-4-oxobutanoic acid], for which the Ki lay in the range of 20.1 to 200 nM.

In the case of `COc1ccc(S(=O)(=O)N2c3ccccc3C(N(C(=O)CCC(=O)O)C3CC3)C3CCCC32)cc1` (racemic) [24C, 4-[cyclopropyl[cis,cis-2,3,3a,4,9,9a-hexahydro-4-[(4-methoxyphenyl)sulfonyl]-1H-cyclopenta[b]quinolin-9-yl]amino]-4-oxobutanoic acid], the Ki is 20.1 to 200 nM.

The compound `O=C(O)COC(=O)N(C1CC1)C1c2ccccc2N(C(=O)c2cccc(OC(F)(F)F)c2)C2CCCC21` (racemic) [32L, [[[cyclopropyl[cis,cis-2,3,3a,4,9,9a-hexahydro-4-[3-(trifluoromethoxy)benzoyl]-1H-cyclopenta[b]quinolin-9-yl]amino]carbonyl]oxy]acetic acid] yielded a Ki of 1 to 5 nM.

`CN(CC(=O)O)C(=O)N(C1CC1)C1c2ccccc2N(C(=O)c2ccccc2)C2CCCC21` (racemic) [35D, N-[[[cis,cis-4-benzoyl-2,3,3a,4,9,9a-hexahydro-1H-cyclopenta[b]quinolin-9-yl]cyclopropylamino]carbonyl]-N-methylglycine] gave a Ki of 5.1 to 20 nM.

The compound `C[C@H](NC(=O)N(C1CC1)C1c2ccccc2N(C(=O)c2ccc(OC(F)(F)F)cc2)C2CCCC21)C(=O)O` (mixture of isomers) [35E, N-[[cyclopropyl[cis,cis-2,3,3a,4,9,9a-hexahydro-4-[4-(trifluoromethoxy)benzoyl]-1H-cyclopenta[b]quinolin-9-yl]amino]carbonyl]-l-alanine] yielded an inhibition constant (Ki) of 20.1 to 200 nM.

`C[C@@H](NC(=O)N(C1CC1)C1c2ccccc2N(C(=O)c2ccc(OC(F)(F)F)cc2)C2CCCC21)C(=O)O` (mixture of isomers) [35F, N-[[cyclopropyl[cis,cis-2,3,3a,4,9,9a-hexahydro-4-[4-(trifluoromethoxy)benzoyl]-1H-cyclopenta[b]quinolin-9-yl]amino]carbonyl]-D-alanine]: the Ki is 201 to 7500 nM.

As for `O=C(O)CCNC(=O)N(C1CC1)C1c2ccccc2N(C(=O)c2ccc(OC(F)(F)F)cc2)C2CCCC21` (racemic) [35G, N-[[cyclopropyl[cis,cis-2,3,3a,4,9,9a-hexahydro-4-[4-(trifluoromethoxy)benzoyl]-1H-cyclopenta[b]quinolin-9-yl]amino]carbonyl]-beta-alanine], the Ki is 201 to 7500 nM.

`O=C(O)CNC(=O)N(C1CC1)C1c2ccccc2N(C(=O)c2ccc(OC(F)(F)F)cc2)C2CCCC21` (racemic) [35K, N-[[cyclopropyl[cis,cis-2,3,3a,4,9,9a-hexahydro-4-[4-(trifluoromethoxy)benzoyl]-1H-cyclopenta[b]quinolin-9-yl]amino]carbonyl]glycine] had a Ki of 5.1 to 20 nM.

`O=C(O)COC(=O)N(C1CC1)C1c2ccccc2N(c2nnc(Cc3ccc(OC(F)(F)F)cc3)o2)C2CCCC21` (racemic) [38D, [[[cyclopropyl[cis,cis-2,3,3a,4,9,9a-hexahydro-4-[5-[[4-(trifluoromethoxy)phenyl]methyl]-1,3,4-oxadiazol-2-yl]-1H-cyclopenta[b]quinoline-9-yl]amino]carbonyl]oxy] acetic acid]: the Ki was 5.1 to 20 nM.

In the case of `O=C(O)COC(=O)N(C1CC1)C1c2ccccc2N(c2nnc(Cc3ccc(F)cc3)o2)C2CCCC21` (racemic) [38E, [[[cyclopropyl[cis,cis-4-[5-[(4-fluorophenyl)methyl]-1,3,4-oxadiazol-2-yl]-2,3,3a,4,9,9a-hexahydro-1H-cyclopenta[b]quinoline-9-yl]amino]carbonyl]oxy]acetic acid], the Ki was 20.1 to 200 nM.

Compound `O=C(O)CCCNC1c2ccccc2N(C(=O)c2ccc(OC(F)(F)F)cc2)C2CCCC12` (racemic) [44B, 4-[[cis,cis-2,3,3a,4,9,9a-hexahydro-4-[4-(trifluoromethoxy)benzoyl]-1H-cyclopenta[b]quinolin-9-yl]amino]butanoic acid] displayed a Ki of 201 to 7500 nM.

`O=C(O)C1CC1CN(C1CC1)C1c2ccccc2N(C(=O)c2ccc(OC(F)(F)F)cc2)C2CCCC21` (racemic) [44C, trans-2-[[cyclopropyl[cis,cis-2,3,3a,4,9,9a-hexahydro-4-[4-(trifluoromethoxy)benzoyl]-1H-cyclopenta[b]quinolin-9-yl]amino]methyl]cyclopropane-carboxylic acid] had a Ki of 20.1 to 200 nM.

In turn, `O=C(O)CCCN(Cc1ccccc1)C1c2ccccc2N(C(=O)c2ccc(OC(F)(F)F)cc2)C2CCCC12` (racemic) [44E, 4-[[cis,cis-2,3,3a,4,9,9a-hexahydro-4-[4-(trifluoromethoxy)benzoyl]-1H-cyclopenta[b]quinolin-9-yl](phenylmethyl)amino] butanoic acid] gave a Ki of 5.1 to 20 nM.

`O=C(O)CCCN(CC1CC1)C1c2ccccc2N(C(=O)c2ccc(OC(F)(F)F)cc2)C2CCCC12` (racemic) [44F, 4-[(cyclopropylmethyl)[cis,cis-2,3,3a,4,9,9a-hexahydro-4-[4-(trifluoromethoxy)benzoyl]-1H-cyclopenta[b]quinolin-9-yl]amino]butanoic acid] yielded a Ki of 20.1 to 200 nM.

`O=C(O)CCCN(C(=O)c1ccccc1)C1c2ccccc2N(C(=O)c2ccc(OC(F)(F)F)cc2)C2CCCC12` (racemic) [47D, 4-[benzoyl[cis,cis-2,3,3a,4,9,9a-hexahydro-4-[4-(trifluoromethoxy)benzoyl]-1H-cyclopenta[b]quinolin-9-yl]amino]butanoic acid] gave a Ki of 5.1 to 20 nM.

For the compound `Cc1ccc(C(=O)N(CCCC(=O)O)C2c3ccccc3N(C(=O)c3ccc(OC(F)(F)F)cc3)C3CCCC23)cc1` (racemic) [47F, 4-[[cis,cis-2,3,3a,4,9,9a-hexahydro-4-[4-(trifluoromethoxy)benzoyl]-1H-cyclopenta[b]quinolin-9-yl](4-methylbenzoyl)amino]butanoic acid], the Ki fell in the range of 201 to 7500 nM.

`CC(C)C(=O)N(CCCC(=O)O)C1c2ccccc2N(C(=O)c2ccc(OC(F)(F)F)cc2)C2CCCC12` (racemic) [47G, 4-[[cis,cis-2,3,3a,4,9,9a-hexahydro-4-[4-(trifluoromethoxy)benzoyl]-1H-cyclopenta[b]quinolin-9-yl](2-methyl-1-oxopropyl)amino]butanoic acid] displayed a Ki of 201 to 7500 nM.

For the origin of these results see patent publication US8592383B2, “Cycloalkyl-fused tetrahydroquinolines as CRTH2 receptor modulators” (Merck Sharp & Dohme Corp., priority 2011, dated 2013).
